Paper PMC4336329 (PLoS ONE, 2015)
About 2,200 (0.71%) of roughly 310,000 compounds showed an effect of 50% or more. Effects have a minus sign here. Some of the results follow.

Biological target: human ether-à-go-go-related gene (hERG) potassium channel (human, UniProt Q12809)
Test: primary screen, population patch clamp on CHO cells stably expressing hERG

human ether-à-go-go-related gene (hERG) potassium channel, sequence (Q12809 whole entry, looked up): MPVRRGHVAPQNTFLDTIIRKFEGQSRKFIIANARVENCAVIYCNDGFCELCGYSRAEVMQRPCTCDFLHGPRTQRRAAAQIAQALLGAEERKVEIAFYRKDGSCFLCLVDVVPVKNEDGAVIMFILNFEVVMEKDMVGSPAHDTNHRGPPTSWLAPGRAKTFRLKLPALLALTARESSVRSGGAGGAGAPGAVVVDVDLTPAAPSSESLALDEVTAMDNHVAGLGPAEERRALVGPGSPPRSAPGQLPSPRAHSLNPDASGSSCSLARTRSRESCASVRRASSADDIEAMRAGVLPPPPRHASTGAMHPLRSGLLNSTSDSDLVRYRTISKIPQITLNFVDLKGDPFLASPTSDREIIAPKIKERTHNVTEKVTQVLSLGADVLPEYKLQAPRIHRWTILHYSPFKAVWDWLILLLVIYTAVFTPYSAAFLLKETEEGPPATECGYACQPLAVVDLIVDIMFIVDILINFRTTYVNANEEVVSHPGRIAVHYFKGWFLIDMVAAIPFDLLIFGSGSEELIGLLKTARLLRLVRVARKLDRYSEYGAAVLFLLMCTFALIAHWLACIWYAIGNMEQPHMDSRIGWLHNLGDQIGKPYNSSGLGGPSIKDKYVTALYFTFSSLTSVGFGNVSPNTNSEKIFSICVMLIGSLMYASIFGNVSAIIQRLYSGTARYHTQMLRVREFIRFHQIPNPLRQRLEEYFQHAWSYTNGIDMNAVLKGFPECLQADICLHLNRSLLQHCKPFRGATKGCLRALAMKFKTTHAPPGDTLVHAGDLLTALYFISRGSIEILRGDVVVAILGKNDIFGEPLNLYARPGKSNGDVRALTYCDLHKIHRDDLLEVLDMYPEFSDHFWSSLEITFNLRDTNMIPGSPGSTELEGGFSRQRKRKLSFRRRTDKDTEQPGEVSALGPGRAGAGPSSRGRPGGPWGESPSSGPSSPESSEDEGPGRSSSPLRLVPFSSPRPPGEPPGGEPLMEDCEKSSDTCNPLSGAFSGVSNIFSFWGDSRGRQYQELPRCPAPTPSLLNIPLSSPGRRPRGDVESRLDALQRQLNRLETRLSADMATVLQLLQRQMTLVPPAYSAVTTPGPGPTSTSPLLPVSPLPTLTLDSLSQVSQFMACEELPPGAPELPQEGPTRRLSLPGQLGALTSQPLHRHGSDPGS

SMILES	hERG current change (%, negative = inhibition) at 1uM [%]
O=C(CCNC(=O)Cn1ccc2ccccc2c1=O)NCCCN1CCOCC1	12.4
CN(CCCC(=O)Nc1ccncc1)S(=O)(=O)c1ccc(Cl)cc1	-29.8
CCc1cc(C(=O)c2ccc(OC)cc2)c(NC(=O)COCC(=O)O)s1	12.5
O=C(Cn1cnc2ccccc2c1=O)NCCC(=O)Nc1ccc2c(c1)OCO2	5.25
COc1ccc(/C=N/NC(=O)c2c(-c3ccccc3)noc2C)cc1	-1
Cc1nc2nc(C)c(CCC(=O)N3CCOCC3)c(C)n2n1	-31
Cc1cccn2c(=O)c(/C=C(\C#N)C(N)=O)c(N3CCN(c4ccccc4)CC3)nc12	3.6
CCCCN(CC)Cc1ccc(CNC(=S)Nc2cccc(F)c2)o1	-3.68
COc1ccc(N2CCN(C(=O)COc3ccc4ccccc4c3)CC2)cc1	2.24
CC1(C)Cc2ccccc2C(N/N=C/c2ccc(Cl)cc2)=N1	16
CCOc1ccc(CCNC(=O)c2cc(C)on2)cc1OCC	11.6
CC(C)C(CC(=O)NCc1ccco1)c1ccco1 (stereo not drawn)	19.5
O=C(Nc1ccccc1)NC1CCS(=O)(=O)C1 (stereo not drawn)	-5.05
CNc1nc(C)c(C(=O)OCc2ccccc2)s1	16.5
O=C(Nc1ccccc1Cl)Nc1cccc2cccnc12	14.2
CC(=O)C1=C(O)C(=O)N(Cc2cccnc2)C1c1ccccc1Cl (stereo not drawn)	-1.41
COc1ccc(C(=O)COC(=O)[C@H](C)Nc2ccc(C(F)(F)F)cc2[N+](=O)[O-])cc1	14
CNC(C)C#Cc1ccc2sc3cc(OC)c(OC)cc3c(=O)c2c1 (stereo not drawn)	9.32
O=C1/C(=C/c2cccnc2)SC(=S)N1CC1CCCO1 (stereo not drawn)	6.5
CC(=O)N1CCN(S(=O)(=O)c2cccc(C(=O)NC3CC3)c2)CC1	24.8
O=C(c1ccco1)N1CCN(c2ncnc3c2[nH]c2ccc(Cl)cc23)CC1	-70.1
Cc1c(C=O)c2ccccn2c1C(=O)c1cccs1	15.2
COc1ccccc1OCC(=O)Nc1ccccc1C(=O)NCc1ccco1	1.48

SMILES	hERG current change (%, negative = inhibition) at 1uM [%]
C/C(N)=C(/C#N)C(=O)COC(=O)CCS(=O)(=O)c1ccccc1	13
NC(=O)c1ccc(OCC2CCCO2)cc1 (stereo not drawn)	9.85
C/C(=N/NC(=O)c1sc(NS(=O)(=O)c2ccccc2)nc1C)c1ccccc1	3.63
O=C(CN1CCCC1)N1CCCC(c2ccc(F)cc2)c2ccc(F)cc21.O=C(O)C(=O)O (stereo not drawn)	-3.04
CC1(C)CC(=O)c2cnc(NCc3ccco3)nc2C1	11.3
Cc1ccc(CNS(=O)(=O)c2ccc3c(c2)NC(=O)C(C)S3)cc1 (stereo not drawn)	5.84
Cc1ccn2cc(CC(=O)O)nc2c1	3.83
CCOC(=O)C(CSCc1ccccc1)NC(=O)OC(C)(C)C (stereo not drawn)	-3.19
CCOc1ccc(NC(=O)CN2C(=O)CSc3ccc(S(=O)(=O)N4CCCC4)cc32)cc1	9.95
CCn1c2ccccc2c2cc(C3C(C#N)=C(N)Oc4n[nH]c(COC)c43)ccc21 (stereo not drawn)	13.3
O=S(=O)(NCCCc1ccccc1)c1ccc(Br)cc1	7.49
CC(=O)c1cnc2c(-c3cccc(Br)c3)cnn2c1C	10.9
CCCC(=O)NC(Nc1ccc(S(=O)(=O)Nc2cc(C)on2)cc1)(C(=O)OCC)C(F)(F)F (stereo not drawn)	23.1
O=C(Nc1ccccn1)c1ccc(Cl)c([N+](=O)[O-])c1	12.4
S=C1NC[C@H](Cc2ccccc2)N1CCc1cccc2ccccc12	19.2
O=C(N/N=C/c1ccc(O)cc1O)C(=O)N/N=C/c1ccc(O)cc1O	12.1
CC(c1ccccc1)N1CC(C(=O)O)CC1=O (stereo not drawn)	11.6
COc1ccc(CCNC2CC(=O)N(C)C2=O)cc1OC (stereo not drawn)	1.99
Cc1cc(C)c(NC(=O)CS)c(Cl)c1	-5.08
O=C(CN1CCN(C(=O)c2ccccc2)CC1)Nc1cc(S(=O)(=O)N2CCCC2)ccc1Cl	-15.7
O=[N+]([O-])c1ccc(C(O)CSC(=S)N2CCCCC2)cc1 (stereo not drawn)	13.5
Cc1ccc(C)c(S(=O)(=O)NCC(c2ccco2)N2CCc3ccccc3C2)c1 (stereo not drawn)	1.75
